Common to all, as to assay: Primary Screen for Target Class Profiling of Small Molecule Inhibitors of Methyltransferases
The target in test [1] is Glycine N-methyltransferase (Homo sapiens) (UniProt Q14749). Conditions: purified enzyme, MTase-Glo SAH luminescence; measured here: GNMT inhibition; at 40 µM; stronger effect = lower value. The essentials: (§1)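 Each enzyme was reacted with SAM and its substrate, with compounds tested once at 40 uM; SAH formed was read by MTase-Glo luminescence.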
The target of test [2] is Guanidinoacetate N-methyltransferase (Homo sapiens) (UniProt Q14353). To be noted: purified enzyme, MTase-Glo SAH luminescence; measured here: GAMT inhibition; at 40 µM; stronger effect = lower value. The gist of the method: as §1
The target in test [3] is Histamine N-methyltransferase (Homo sapiens) (UniProt P50135). To be noted: purified enzyme, MTase-Glo SAH luminescence; measured here: HNMT inhibition; at 40 µM; stronger effect = lower value. The essentials:
as §1

The target in test [4] is Nicotinamide N-methyltransferase (Homo sapiens) (UniProt P40261). To be noted: purified enzyme, MTase-Glo SAH luminescence; measured here: NNMT inhibition; at 40 µM; stronger effect = lower value. The gist of the method:
as §1

In test [5] the target is Phenylethanolamine N-methyltransferase (Homo sapiens) (UniProt P11086). Conditions: purified enzyme, MTase-Glo SAH luminescence; measured here: PNMT inhibition; at 40 µM; stronger effect = lower value. The essentials: as §1

Some of the results follow. Further columns of the screen follow, without active or inactive calls.
% is set by controls: 0 for no effect and ±100 for the full control effect.

Regarding `CCCn1cc(-c2ccnc(NC3CCN(Cc4cccnc4)CC3)n2)c(C)n1`, the activity change, negative = inhibition was -6.83% in test [1]; -3.71% in test [2]; -37.2% in test [3]; -8.67% in test [4]; 7.23% in test [5].

Regarding `N[C@@H](Cc1cc(I)c(Oc2cc(I)c(O)c(I)c2)c(I)c1)C(=O)O`, the activity change, negative = inhibition in test [1] was -16.2%; in test [2], -45.8%; in test [3], -7.8%; in test [4], -72.7%; in test [5] it was -20.9%.

As to `CN(CCC1CCOCC1)C(=O)c1ccc(OC2CCN(C(=O)C3CC3)CC2)cc1`, the activity change, negative = inhibition was -3.22% in test [1]; -7.2% in test [2]; -2.51% in test [3]; -7.31% in test [4]; -5.74% in test [5].

On to `Cc1cccc(N2C(=O)c3cc(-c4ccco4)nn3CC2(C)C(=O)NC2CCCCC2)c1C` (stereo unspecified), for which the activity change, negative = inhibition turned out to be 3.78% in test [1]; 0% in test [2]; 3.21% in test [3]; 8.08% in test [4]; 1.32% in test [5].

On to `CN(C)CC(=O)N1CCC[C@@H](n2nc(-c3ccc(Oc4ccccc4)cc3)c3c(N)ncnc32)C1`, for which the activity change, negative = inhibition in test [2] was 16.9%; in test [4] it was -33.8%; in test [5] it was -3.91%.

Turning to `CC(=O)OCC1=C[C@H](O)[C@@H]2C(C(=O)O)=CO[C@@H](O[C@@H]3O[C@H](CO)[C@@H](O)[C@H](O)[C@H]3O)[C@H]12`, the activity change, negative = inhibition in test [1] was 4.58%; in test [2] it was 2.38%; in test [3] it was 7.47%; in test [4], -8.24%; in test [5], 2.31%.

In the case of `COc1cc(C(=O)O)ccc1NC(=O)[C@@H]1N[C@@H](CC(C)(C)C)[C@](C#N)(c2ccc(Cl)cc2F)[C@H]1c1cccc(Cl)c1F`, the activity change, negative = inhibition is -26.4% in test [2], -78.5% in test [4] and -3.98% in test [5].

For `CC1(C)CC2C(O)C3=C(CC(C)(O)C2C1)C(=O)OC3` (stereo unspecified), the activity change, negative = inhibition in test [1] is 0%; in test [2], 9.84%; in test [3], 9.29%; in test [4], -1.88%; in test [5] it was 7.13%.

In the case of `O=C(NC1CC(c2nnc(CO)n2C2CC2)C1)c1ccc2c(c1)CCO2` (stereo unspecified), the activity change, negative = inhibition was -2.31% in test [1]; -5.45% in test [2]; -1.17% in test [3]; -11.4% in test [4]; -1.89% in test [5].

For the compound `CCC(C)CNCC(=O)N1CCC2SC=CC2C1COc1cccc(C)c1` (stereo unspecified), the activity change, negative = inhibition in test [1] is 2.62%; in test [2], 5.34%; in test [3], 2.5%; in test [4], -16.8%; in test [5], 0.903%.

Take `CCN(CC)CCCN1C(=O)c2ccc(-c3ccco3)n2CC1(C)C(=O)NC1CCCCC1` (stereo unspecified): the activity change, negative = inhibition was 1.8% in test [1]; 4.24% in test [2]; -0.971% in test [3]; 4.53% in test [4]; 1.94% in test [5].

As for `CCCCCCN(CCC(=O)NCCc1ccccc1)C(=O)c1cc(C)oc1C`, the activity change, negative = inhibition in test [1] is -11.8%; in test [2], 1.32%; in test [3], -3.5%; in test [4] it was -11.6%; in test [5] it was 6.6%.

On to `CC(=O)Nc1c2n(c3ccccc13)CC(C)(C(=O)NCCC(C)C)N(Cc1ccccc1C)C2=O` (stereo unspecified), for which the activity change, negative = inhibition was 3.91% in test [1]; 0.761% in test [2]; -0.998% in test [3]; 5.75% in test [4]; 2.42% in test [5].

Take `Cc1cc(C)cc(NC(=O)Cn2nc3n(CCC(C)C)c(=O)c4ccccc4n3c2=O)c1`: the activity change, negative = inhibition was determined as 4.42% in test [1]; 1.34% in test [2]; 6.82% in test [3]; 5.27% in test [4]; 3.78% in test [5].

For the compound `CCOC(=O)c1cc2n(n1)CC(C)(C(=O)NC1CCCCC1)N(c1ccc(OC)cc1OC)C2=O` (stereo unspecified), the activity change, negative = inhibition was -7.98% in test [1]; -3.82% in test [2]; -12.4% in test [3]; -24.7% in test [4]; -4.75% in test [5].

As to `CC(C(=O)N1CCN(c2cc(-c3ccccc3)[nH]n2)CC1)c1ccccc1` (stereo unspecified), the activity change, negative = inhibition in test [1] was -6.59%; in test [2] it was -4.49%; in test [3] it was -1.53%; in test [4], -3.42%; in test [5], -2.05%.

Consider `CC(C(=O)NCc1cccc(Cl)c1)n1ccc2cc(S(=O)(=O)N3CCCC3)ccc21` (stereo unspecified), for which the activity change, negative = inhibition in test [1] is 2.67%; in test [2] it was 0.218%; in test [3], 3.04%; in test [4] it was -0.494%; in test [5], 1.65%.

Turning to `COCCCn1c(=O)c(C(=O)NC2CC2)nc2cccnc21`, the activity change, negative = inhibition is -3.31% in test [1]; 1.16% in test [2]; 3.49% in test [3]; -3.28% in test [4]; 1.16% in test [5].

For `CCC(C)NC(=O)c1ccc2c(=O)n(C)c3nnc(SCC(N)=O)n3c2c1` (stereo unspecified), the activity change, negative = inhibition is 6.3% in test [1]; 0% in test [2]; 7.36% in test [3]; 5% in test [4]; 4.45% in test [5].

On to `C=C1C[C@@]23CC[C@H]4[C@@](C)(CCC[C@@]4(C)C(=O)O)[C@@H]2CC[C@]1(O)C3`, for which the activity change, negative = inhibition in test [1] is 2.39%; in test [2] it was 9.3%; in test [3] it was 3.84%; in test [4] it was -4.47%; in test [5], 6.42%.

Consider `CS(=O)(=O)Cc1ccc(-c2cccc(OCc3ccccc3F)c2)nc1`, for which the activity change, negative = inhibition is -5.54% in test [1]; -11.3% in test [2]; -2.37% in test [3]; -12.5% in test [4]; -7.56% in test [5].

On to `COc1cccc(S(=O)(=O)N2CCC3(CC2)CCC(O)(CN(C)C)CC3)c1`, for which the activity change, negative = inhibition in test [1] came out at 1.35%; in test [2], 0.329%; in test [3] it was 11.6%; in test [4] it was 2.9%; in test [5] it was 6.53%.

Consider `CCOc1ccccc1CNC(=O)Cn1ccc2cc(S(=O)(=O)N3CCCCC3)ccc21`, for which the activity change, negative = inhibition in test [1] is -3.75%; in test [2] it was -1.08%; in test [3], -12.3%; in test [4] it was -12.5%; in test [5] it was -6.77%.

Turning to `CC1(C)CC[C@]2(C(=O)O)CC[C@]3(C)C(=CCC4[C@@]5(C)C[C@@H](O)[C@H](O)C(C)(C)C5CC[C@]43C)[C@@H]2[C@@H]1O` (stereo partly specified), the activity change, negative = inhibition was 2.18% in test [1]; -1.95% in test [2]; 5.31% in test [3]; -11.7% in test [4]; -5.91% in test [5].

Consider `CCN(CC)c1cc(CCC(=O)N2CCN(c3cccc(OC)c3)CC2)ccn1`, for which the activity change, negative = inhibition was -5.3% in test [1]; -3.23% in test [2]; -75.6% in test [3]; -5.45% in test [4]; -0.67% in test [5].

On to `CC1=NOC2(CCN([S+](=O)([O-])c3c(C)noc3C)C2)C1` (stereo unspecified), for which the activity change, negative = inhibition in test [1] was -2.04%; in test [2] it was 2.33%; in test [3], 3.12%; in test [4], -2.39%; in test [5], 10.8%.

For the compound `Cc1cc(=O)n(CC(=O)NC(C)CCc2ccccc2)c(N2CCc3ccccc3C2)n1` (stereo unspecified), the activity change, negative = inhibition in test [1] is -2.81%; in test [2], -4.81%; in test [3], -1.42%; in test [4] it was -1.44%; in test [5], -7.16%.

In the case of `CCOCCCNC(=O)CCn1ccc2cc(S(=O)(=O)N3CCCCC3)ccc21`, the activity change, negative = inhibition is -2.76% in test [1]; 5.02% in test [2]; -1.57% in test [3]; 0.604% in test [4]; 2.91% in test [5].

On to `CC1CCC(NC(=O)C2(C)Cn3c(ccc3-c3ccco3)C(=O)N2Cc2cccc(Cl)c2)CC1` (stereo unspecified), for which the activity change, negative = inhibition in test [1] was -7.32%; in test [2] it was 2.97%; in test [3] it was 1.93%; in test [4], -19.7%; in test [5] it was -1.45%.

These data come from PubChem BioAssay AID1745853 (National Center for Advancing Translational Sciences (NCATS), 2022).
